Screen size: about 310,000 compounds; about 14,000 (4.5%) showed an effect of 50% or more. Effects have a minus sign here. Some of the results follow.
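Also: peak tail current of the secondary pulse compared with the same well before compound.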

The target of this experiment is human ether-à-go-go-related gene (hERG) potassium channel (human, UniProt Q12809). Kind of experiment: primary screen, population patch clamp on CHO cells stably expressing hERG.
human ether-à-go-go-related gene (hERG) potassium channel, sequence (Q12809 whole entry, looked up): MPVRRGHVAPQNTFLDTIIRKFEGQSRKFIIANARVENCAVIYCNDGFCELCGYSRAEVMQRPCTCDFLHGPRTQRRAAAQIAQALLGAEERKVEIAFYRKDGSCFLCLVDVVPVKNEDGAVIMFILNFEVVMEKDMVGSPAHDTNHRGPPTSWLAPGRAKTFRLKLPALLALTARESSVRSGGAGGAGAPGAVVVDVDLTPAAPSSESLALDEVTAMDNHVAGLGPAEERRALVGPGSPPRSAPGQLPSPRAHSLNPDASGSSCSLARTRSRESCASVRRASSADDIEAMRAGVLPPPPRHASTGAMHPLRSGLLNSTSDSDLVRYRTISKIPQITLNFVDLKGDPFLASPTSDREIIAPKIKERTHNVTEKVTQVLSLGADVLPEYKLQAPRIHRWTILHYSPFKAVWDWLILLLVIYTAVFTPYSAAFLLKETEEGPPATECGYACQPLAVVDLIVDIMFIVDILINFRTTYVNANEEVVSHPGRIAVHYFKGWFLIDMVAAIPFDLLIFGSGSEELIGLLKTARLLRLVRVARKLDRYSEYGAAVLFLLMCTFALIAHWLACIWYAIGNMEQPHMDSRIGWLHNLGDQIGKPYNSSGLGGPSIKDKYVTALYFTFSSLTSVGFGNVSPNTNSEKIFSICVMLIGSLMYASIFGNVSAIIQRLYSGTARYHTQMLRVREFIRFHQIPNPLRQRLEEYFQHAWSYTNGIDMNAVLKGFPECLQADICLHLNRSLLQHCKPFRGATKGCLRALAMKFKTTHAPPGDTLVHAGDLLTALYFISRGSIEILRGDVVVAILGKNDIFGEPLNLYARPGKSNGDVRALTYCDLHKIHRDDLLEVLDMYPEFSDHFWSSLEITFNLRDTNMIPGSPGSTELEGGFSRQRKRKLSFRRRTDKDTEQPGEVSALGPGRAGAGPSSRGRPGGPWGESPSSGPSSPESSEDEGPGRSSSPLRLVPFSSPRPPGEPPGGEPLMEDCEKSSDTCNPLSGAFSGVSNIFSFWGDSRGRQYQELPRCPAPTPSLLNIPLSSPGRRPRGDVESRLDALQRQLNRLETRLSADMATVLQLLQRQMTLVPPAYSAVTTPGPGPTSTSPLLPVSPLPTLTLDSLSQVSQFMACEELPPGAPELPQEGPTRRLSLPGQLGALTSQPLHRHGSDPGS
For `NC1=NN=C(N2N=C(c3ccc(Br)cc3)CC2(O)C(F)(F)F)n2ncnc2C1` (stereo not shown), the “hERG current change (%, negative = inhibition) at 10uM” value is given as 0.0237%.
The value for `Cc1cc(F)ccc1NC(=O)Cn1c(C)csc1=O` was 17.1%.
With `CC(C)(C)NC(=O)CSc1n[nH]c(=O)n1-c1ccccc1`, the “hERG current change (%, negative = inhibition) at 10uM” value came out at 8.52%.
Then `CC(C)(C)C(=O)COC(=O)c1ccccc1O`, with 8.68%.
Then `Fc1ccc(NC(=S)Nc2ccc(Br)cc2)cc1`, with 5.81%; and `Cc1sc2nc(CN3CCCC3)nc(Cl)c2c1C`, with -4.03%.
The value for `O=C(COC(=O)c1ccc[nH]c1=O)NC1CCCc2ccccc21` (stereo not shown) was 13.9%; that for `COc1ccc(N(CC(O)Cn2nnc3ccccc32)S(=O)(=O)c2ccc(C)cc2)cc1` (stereo not shown) was -64.6%; that for `Cc1ccc2c(c1)C1CN(C)CCC1N2C(=O)Nc1cccc(C(F)(F)F)c1` (stereo not shown) was -52.4%.
As to `CCOC(=O)c1oc2ccccc2c1CN1CCN(c2ccccc2)CC1.Cl`, the “hERG current change (%, negative = inhibition) at 10uM” value is reported as -26.6%.
As to `Cc1ccn(CCC(=O)O)n1`, the “hERG current change (%, negative = inhibition) at 10uM” value amounted to 26.6%.
Then `CCOC(=O)c1nnc(-c2ccccc2)nc1N1CC(C)OC(C)C1` (stereo not shown), with 5.24%; and `Clc1ccc(C2=Nn3c(nnc3-c3cc(-c4ccccc4)n[nH]3)SC2)cc1`, with -8.18%; and `O=C(C(Cl)Cl)N1CCN(c2ccccn2)CC1`, with 1.19%.
The value for `CCOCCn1c(CC)nc2ccccc21` was 16.9%; that for `O=C(Nc1cccc(N2C(=O)C=CC2=O)c1)c1cccs1` was 10.3%; that for `Cc1cc(C)c2c(c1)cc(C)c1nnc(SCC(=O)Nc3ccccc3N3CCOCC3)n12` was -29.5%.
Consider `O=c1[nH]c(CN2CCOCC2)nc2cc(Cl)ccc12`, for which the “hERG current change (%, negative = inhibition) at 10uM” value is given as -10.4%.
The value for `COc1cccc(N/C(=N/C(=S)Nc2ccc(C)cc2C)Nc2nc(C)cc(C)n2)c1` was 0.704%; that for `Cc1cc(Cl)ccc1OCCCC(=O)NCc1ccccn1` was -15.2%; that for `Cc1ccc(S(=O)(=O)CCC(=O)Nc2nnc(-c3ccc(F)cc3)o2)cc1` was 0.603%.
Take `FC(F)(F)c1ccccc1-n1ccnc1`: the “hERG current change (%, negative = inhibition) at 10uM” value was 13.1%.
For the compound `NC(=O)CC(NC(=O)Cc1ccc(Cl)cc1)c1ccc(NC2CC3CCC2C3)c([N+](=O)[O-])c1` (stereo not shown), the “hERG current change (%, negative = inhibition) at 10uM” value is -3.01%.
Regarding `COc1ccc(C(C)=O)cc1COc1nc(C)nc2ccccc12`, the “hERG current change (%, negative = inhibition) at 10uM” value is recorded as 20.3%.
The value for `COc1ccc(S(=O)(=O)N2CCC(C(=O)NC3CCCCC3)CC2)cc1OC` was -0.0397%.
Consider `Cc1cc(C)c(NC(=O)Cn2nnc(C(=O)Nc3ccc(F)cc3F)c2N)c(C)c1`, for which the “hERG current change (%, negative = inhibition) at 10uM” value was 8.74%.
The value for `CCOc1ccccc1OCCCC(=O)N1CCN(S(=O)(=O)c2ccc(Cl)cc2)CC1` was -29%.
As to `O=C(CSc1ccccc1)Nc1ccc(N2CCN(c3ccccc3)CC2)c(F)c1`, the “hERG current change (%, negative = inhibition) at 10uM” value is 10.9%.
The value for `O=C(COC(=O)/C=C/c1cccs1)Nc1cccc(S(=O)(=O)N2CCOCC2)c1` was -40.8%; that for `CC(=O)c1cccc(N(C(=O)CNC(=O)c2ccco2)C(C(=O)NCC2CCCO2)c2ccccc2)c1` (stereo not shown) was 20.1%.
Regarding `O=c1c2c([nH]c3ccccc13)C(=C1CCCC1)CC2`, the “hERG current change (%, negative = inhibition) at 10uM” value was 4.72%.
The value for `CN1CCN(NC(=O)/C=C/c2ccc(C(C)(C)C)cc2)CC1` was -23%.
The value for `COC(=O)c1ccc(OCc2nc(N)nc(N3CCOCC3)n2)cc1` was 1.11%.
The value for `CN(CCCC(=O)NCc1ccco1)S(=O)(=O)c1ccccc1` was -5.89%; that for `CN(CCO)c1nc(N)c2c(N)nc3c(c2c1C#N)CC(=O)N3C1CCCC1` was -63.5%.
`O=C(CSc1nnc(NC(=O)C2CC2)s1)Nc1ccccc1`: the “hERG current change (%, negative = inhibition) at 10uM” value was 10.5%.
Turning to `COc1ccc(CCNC(=S)N2CCC(C(N)=O)CC2)cc1`, the “hERG current change (%, negative = inhibition) at 10uM” value is on record as 3.36%.
`Cc1ccc(NC(=O)c2c(F)cccc2Cl)cc1NS(C)(=O)=O`: the “hERG current change (%, negative = inhibition) at 10uM” value came out at 13.3%.
`CCOC(=O)CC1C(=O)NCCN1c1nc2c(C)cccn2c(=O)c1/C=C1\SC(=S)N(C(C)CC)C1=O` (stereo not shown): the “hERG current change (%, negative = inhibition) at 10uM” value was determined as 4.42%.
Regarding `O=C1c2cccc3cccc(c23)C(=O)N1c1ccccc1Cl`, the “hERG current change (%, negative = inhibition) at 10uM” value is reported as 16%.
The value for `O=c1cc[nH]c2c(C(F)(F)F)cccc12` was -0.945%.
Turning to `CC1(OC(=O)C2CCCC2)C(=O)C=C2C=C(c3ccsc3)N(CC3CC3)C=C2C1=O` (stereo not shown), the “hERG current change (%, negative = inhibition) at 10uM” value is -11.8%.
Consider `COCCN(Cc1ccccc1)C(=S)Nc1ccc(Cl)cc1`, for which the “hERG current change (%, negative = inhibition) at 10uM” value is given as 11.1%.
The value for `C/C(=N\NC(=O)c1nn(C)cc1Br)c1ccc(NC(=O)c2ccncc2)cc1` was 6.84%; that for `c1nc(N2CCC3(CC2)OCCO3)c2c3c(sc2n1)CCCC3` was -39%.
Turning to `COc1ccc(CCN/C=C2/CC(=O)NC2=O)cc1OC`, the “hERG current change (%, negative = inhibition) at 10uM” value came out at 8.75%.

Values taken from article PMC4336329 (PLoS ONE, 2015).
